# PubChem BioAssay AID2675 (National Center for Advancing Translational Sciences (NCATS), 2010)
# Hit rate of the full screen: of about 280,000 compounds, about 100 (0.036%) were called active. Inconclusive means that the source gave no clear call. Such entries were picked first, then a sample of the others. Calls come from the whole dose curve; as a rule, active = well fitted inhibition curve with a large enough effect in the signal ratio, with a control signal flat (not every such curve was filed as active); inconclusive = small, poorly fitted or top-dose-only effect, or effect the other way, or a change in a side signal; inactive = no such curve, though single readings can be large or run the other way; the % refers to the signal ratio. Where the call is inconclusive, the potency comes from a doubtful curve fit. “Side channel” marks fits to a control or component signal instead of the main read-out.
# Target: Muscleblind-like protein 1 (Homo sapiens) (UniProt Q9NR56)
# Assay: qHTS Assay for Inhibitors of MBNL1-poly(CUG) RNA binding
# Settings: TR-FRET MBNL1-His/biotin-(CUG)12 binding, 665/545 ratio; series mostly up to 57.5 µM
# Outline: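 Ratiometric TR-FRET (665 over 545 nm, excitation 340 nm) tracks disruption of MBNL1-His/biotin-(CUG)12 complex after 60 min at room temperature, with compounds at 92 nM to 58 uM final.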
# Potency is the fitted concentration of half-maximal effect; tags give direction and shape of the fitted curve or compound fluorescence and quenching.
# Chain of UniProt Q9NR56 (Q9NR56 whole entry, looked up): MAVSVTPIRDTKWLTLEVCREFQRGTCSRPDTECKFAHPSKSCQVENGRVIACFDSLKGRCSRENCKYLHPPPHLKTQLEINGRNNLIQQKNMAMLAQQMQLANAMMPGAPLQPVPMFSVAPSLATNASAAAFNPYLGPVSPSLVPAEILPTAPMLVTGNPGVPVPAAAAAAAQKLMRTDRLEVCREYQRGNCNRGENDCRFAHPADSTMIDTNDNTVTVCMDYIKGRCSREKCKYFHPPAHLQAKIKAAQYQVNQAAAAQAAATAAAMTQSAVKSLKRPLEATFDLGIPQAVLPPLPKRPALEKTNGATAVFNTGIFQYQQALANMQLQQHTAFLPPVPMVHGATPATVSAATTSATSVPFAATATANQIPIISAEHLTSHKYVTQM
row,SMILES,Potency
1,O=[N+]([O-])c1ccc(NCCCNS(=O)(=O)c2ccc(Cl)cc2)c(Cl)c1,"inconclusive: 28.2 µM [quencher, side channel, single point]"
2,Cn1c(O)c(N=NC(=O)C2COc3ccccc3O2)c2ccccc21 (stereo not given),"inconclusive: 15.8 µM [quencher, side channel, partial curve]"
3,O=C(O)c1ccc2cccnc2c1O,inactive
4,COc1ccc2cc(C(=O)N3CCN(Cc4ccc5c(c4)OCO5)CC3)[nH]c2c1,inactive
5,O=C(N/N=C/c1cn(-c2cccs2)nc1-c1ccccc1)c1ccccc1Br,inactive
6,C(=N\Nc1ncnc2ccccc12)/c1ccccc1,"inconclusive: 25.1 µM [quencher, side channel, single point]"
7,NS(=O)(=O)c1ccc(CCNC(=O)Cn2c(=O)c3cccn3c3cccnc32)cc1,"inconclusive: 0.708 µM [quencher, side channel, single point]"
8,CC(=O)N1C(=O)c2cccc3cccc(c23)C(=O)N1C(C)=O,"inconclusive: 10 µM [quencher, side channel, partial curve]"
9,CCN1CCN(C(=O)c2cnn3c(C(F)F)cc(-c4ccc(C)cc4)nc23)CC1,"inconclusive: 14.1 µM [quencher, side channel, partial curve]"
10,Cc1cnc(CN(C)C(=O)c2ccc3oc(Cc4ccc(Cl)cc4)nc3c2)[nH]1,inactive
11,CCSS(=O)(=O)c1cccc2cccnc12,"inconclusive: 0.794 µM [fluorescent, side channel, single point]"
12,Cn1c(CCN2CCCCC2)nc2cc(NC(=O)COc3ccc(Cl)cc3)ccc21,"inconclusive: 5.01 µM [quencher, side channel, full curve, poor fit]"
13,COc1ccc(NCC(=O)N/N=C/c2c(C)nn(Cc3ccccc3)c2Cl)cc1,"inconclusive: 39.8 µM [quencher, side channel, single point]"
14,CCNC(=O)c1ccccc1SCc1ccccc1,inactive
15,Cc1cc(-n2c(C)cc(C(=O)CSc3ncnc4ccccc34)c2C)no1,inactive
16,CC(=O)c1c(C)n([O-])c2ccc(C)cc2[n+]1=O,"inconclusive: 14.1 µM [quencher, side channel, partial curve]"
17,COc1ccc(Cl)cc1-c1n[nH]c(=S)o1,"inconclusive: 7.94 µM [fluorescent, side channel, full curve]"
18,COc1cccc(/C=C2\SC(=O)N(CC(=O)NC3CCS(=O)(=O)C3)C2=O)c1 (stereo not given),"inconclusive: 39.8 µM [activator, single point]"
19,CC12CC3CC(C)(C1)CC(C(=O)NNC(=O)c1ccncc1)(C3)C2,inactive
20,Cc1ccc(NC(=O)c2cnn(-c3ccccc3)c2NC(=O)c2ccco2)cc1C,inactive
21,O=C(c1cn(CC(=O)N2CCCCC2)c2ccccc12)C1CC1,inactive
22,O=C(N/N=C/c1ccc2c(c1)OCO2)c1ccc2c(c1)OCCO2,"inconclusive: 25.1 µM [quencher, side channel, partial curve, poor fit]"

row,SMILES,Potency
1,O=C(/C(C=Nc1ccc(Br)cc1)=C(/O)c1ccco1)C(F)(F)F,"inconclusive: 39.8 µM [activator, single point]"
2,O=C(NCc1ccccc1)/C(=C/c1ccc([N+](=O)[O-])cc1)NC(=O)c1ccco1,"inconclusive: 14.1 µM [quencher, partial curve]"
3,CCN(CC)S(=O)(=O)c1cccc(C(=O)N/N=C(\C)c2ccc(O)cc2O)c1,inactive
4,O=C(Nc1ccccc1N1CCCC1)c1ccc([N+](=O)[O-])o1,"inconclusive: 6.31 µM [quencher, side channel, partial curve]"
5,CCC(=O)N1CCN(c2cc(N3CCN(C)CC3)c(F)cc2[N+](=O)[O-])CC1,"inconclusive: 14.1 µM [quencher, side channel, partial curve]"
6,COc1ccccc1Cc1nnnn1CC(=O)O,inactive
7,Cc1ccc(Cn2c(=N)c(C(=O)NCCN3CCOCC3)cc3c(=O)n4ccccc4nc32)cc1,"inconclusive: 2 µM [quencher, side channel, full curve]"
8,O=C(CCCn1c(SCC(=O)c2ccc(O)c(O)c2)nc2ccccc2c1=O)NCC1CCCO1 (stereo not given),inactive
9,Cc1cccc(NC(=O)C2CCN(S(=O)(=O)c3cccc4nsnc34)CC2)c1,"inconclusive: 2.82 µM [quencher, side channel, full curve]"
10,O=C(O)c1ccc2c(c1)C(=O)N(CCc1ccccc1)C2=O,"inconclusive: 20 µM [quencher, side channel, partial curve]"
11,CCn1nc(NS(=O)(=O)c2cccc3nonc23)c2cc3ccc(C)cc3nc21,"inconclusive: 35.5 µM [quencher, side channel, single point]"
12,CC(C)(CO)CNC1CCCN(C2Cc3ccccc3C2)C1 (stereo not given),inactive
13,Cc1ccc(N2CN=c3s/c(=C\c4ccccn4)c(=O)n3C2)cc1,"inconclusive: 28.2 µM [quencher, side channel, single point]"
14,COc1ccc(S(=O)(=O)N2CCC(C(=O)c3ccc4c(c3)OCCO4)CC2)cc1,"inconclusive: 39.8 µM [quencher, side channel, single point]"
15,COc1nc(OC)nc(Oc2ccc(Cl)cc2[N+](=O)[O-])n1,"inconclusive: 39.8 µM [quencher, side channel, single point]"
16,O=C(/C=C/c1ccc(N2CCCCC2)c([N+](=O)[O-])c1)c1ccc(O)cc1,inactive
17,Oc1ccccc1-c1nc(N2CCCC2)c2ccccc2n1,inactive
18,O=C(NC(=S)Nc1cccc2cccnc12)c1ccccc1,inactive
19,CCOC(=O)C1=C(C)N=c2s/c(=C/c3ccc(OCC(=O)O)cc3)c(=O)n2C1c1ccc(F)cc1 (stereo not given),"inconclusive: 28.2 µM [quencher, side channel, partial curve]"
20,CCCNC(=O)CN(C)S(=O)(=O)c1ccc(F)cc1,"inconclusive: 39.8 µM [fluorescent, side channel, single point]"
21,CC(C)Oc1ccc(C(=O)Nc2nc3ccccc3[nH]2)cc1,inactive
22,CC1CN(C(=O)/C(C#N)=C2\N=C(NC(=O)c3ccc(F)cc3)c3ccccc32)CC(C)O1 (stereo not given),"inconclusive: 20 µM [quencher, side channel, partial curve]"

row,SMILES,Potency
1,CCCCNC(=O)c1nn2cc(Br)cnc2c1Br,"inconclusive: 20 µM [quencher, side channel, partial curve]"
2,Cc1cccc(NC(=O)Nc2ccc(Oc3c(F)c(F)c(F)c(F)c3F)cc2)c1,inactive
3,Cc1cc2c(cc1C)NC(CC(=O)NCc1ccccc1)C(=O)N2 (stereo not given),"inconclusive: 4.47 µM [quencher, side channel, single point]"
4,O=[N+]([O-])c1cc(S(=O)(=O)O)cc([N+](=O)[O-])c1NN(c1ccccc1)c1ccccc1,inactive
5,COC(=O)c1cc(=O)c2c(C)nc(C(Cl)(Cl)Cl)nc2[nH]1,"inconclusive: 11.2 µM [quencher, side channel, partial curve]"
6,Cc1ccc(S(=O)(=O)/C(C#N)=C/c2c(N3CCC(C(N)=O)CC3)nc3c(C)cccn3c2=O)cc1,"inconclusive: 12.6 µM [quencher, side channel, partial curve]"
7,COc1ccc(/C=N\NS(=O)(=O)c2ccc(C)cc2)cc1COc1ccccc1[N+](=O)[O-],"inconclusive: 39.8 µM [inhibitor, single point]"
8,CS(=O)(=O)N(CC(=O)Nc1ccccc1Sc1ccccc1)c1cccc(Br)c1,"inconclusive: 8.91 µM [quencher, side channel, single point]"
9,CCn1nnc(NC(=S)NC(=O)c2ccc(-c3cccc(Cl)c3)o2)n1,inactive
10,CN(C)c1ccc(-c2ccc3c(=O)c4ccccc4n(C)c3c2)cn1,"inconclusive: 8.91 µM [quencher, side channel, partial curve]"
11,C=CCn1c(SCC(=O)N2CCOCC2)nc2scc(-c3ccco3)c2c1=O,inactive
12,O=C(CSc1nnnn1-c1ccccc1)Nc1ccccc1,"inconclusive: 4.47 µM [fluorescent, side channel, single point]"
13,O=C(N/N=C\c1cc([N+](=O)[O-])ccc1N1CCOCC1)c1ccccn1,"inconclusive: 2.82 µM [quencher, full curve, poor fit]"
14,O=[N+]([O-])c1ccc(N=NNc2ccccc2)cc1,"inconclusive: 25.1 µM [quencher, single point]"
15,O=C1c2cccc3c(N4CCCCC4)ccc(c23)C(=O)N1c1cccc(O)c1,"inconclusive: 15.8 µM [quencher, partial curve]"
16,COc1ccc(CNc2nc(S(=O)(=O)c3ccccc3)c(Cl)s2)cc1OC,inactive
17,CCOc1ccc(N2C(=O)CC(NCc3ccc(S(N)(=O)=O)cc3)C2=O)cc1 (stereo not given),inactive
18,Cc1cccc(NC(=O)COC(=O)c2cc(C)oc2C)c1,inactive
19,O=C(Nn1cnnc1)c1cc2cc(Br)ccc2oc1=O,"inconclusive: 14.1 µM [quencher, side channel, partial curve]"
20,Cc1ccc(C(=O)c2coc3cc([N+](=O)[O-])c(O)c([N+](=O)[O-])c23)cc1,"inconclusive: 14.1 µM [quencher, side channel, partial curve]"
21,O=[N+]([O-])c1cc(S(=O)(=O)N2CCCCC2)ccc1NCCN1CCOCC1,"inconclusive: 10 µM [quencher, partial curve]"
